# Measured values: PMC9911399, “Two distinct binding modes provide the RNA-binding protein RbFox with extraordinary sequence specificity”
# Changes are numbered by the printed parent chain; changes in the protein carry UniProt numbers. The list shows a part of the results.
# T1: RBFOX1 RRM (Homo sapiens, UniProt Q9NWB1 109-208)
# T1 sequence: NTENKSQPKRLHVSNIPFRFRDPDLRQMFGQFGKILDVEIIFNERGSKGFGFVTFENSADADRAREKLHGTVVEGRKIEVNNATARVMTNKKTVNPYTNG
# B1: CUCUGAG (DNA:RNA)
# RNA: GGGAGACCGGAAUUCAGAUUGUCCCUCUGAGUUAAAUCCCGUCGUAGCCACCA
# DNA 1: CAATCTGAATTCCGGTCTCCC
# DNA 2: TGGTGGCTACGACGGGATT
# B2: CUCAAUC (DNA:RNA)
# RNA: B1 RNA with U28A, G29A, A30U, G31C
# DNA 1: CAATCTGAATTCCGGTCTCCC
# DNA 2: TGGTGGCTACGACGGGATT
# B3: AGAGGGA (DNA:RNA)
# RNA: B1 RNA with C25A, U26G, C27A, U28G, A30G, G31A
# DNA 1: CAATCTGAATTCCGGTCTCCC
# DNA 2: TGGTGGCTACGACGGGATT
# B4: UCGUCGU (DNA:RNA)
# RNA: B1 RNA with C25U, U26C, C27G, G29C, A30G, G31U
# DNA 1: CAATCTGAATTCCGGTCTCCC
# DNA 2: TGGTGGCTACGACGGGATT
# B5: CAGCUGG (DNA:RNA)
# RNA: B1 RNA with U26A, C27G, U28C, G29U, A30G
# DNA 1: CAATCTGAATTCCGGTCTCCC
# DNA 2: TGGTGGCTACGACGGGATT
# B6: GACGGUA (DNA:RNA)
# RNA: B1 RNA with C25G, U26A, U28G, A30U, G31A
# DNA 1: CAATCTGAATTCCGGTCTCCC
# DNA 2: TGGTGGCTACGACGGGATT
# B7: AAACGGU (DNA:RNA)
# RNA: B1 RNA with C25A, U26A, C27A, U28C, A30G, G31U
# DNA 1: CAATCTGAATTCCGGTCTCCC
# DNA 2: TGGTGGCTACGACGGGATT
# B8: GCGUUAG (DNA:RNA)
# RNA: B1 RNA with C25G, U26C, C27G, G29U
# DNA 1: CAATCTGAATTCCGGTCTCCC
# DNA 2: TGGTGGCTACGACGGGATT
# B9: UGGGGUU (DNA:RNA)
# RNA: B1 RNA with C25U, U26G, C27G, U28G, A30U, G31U
# DNA 1: CAATCTGAATTCCGGTCTCCC
# DNA 2: TGGTGGCTACGACGGGATT
# B10: AAAUUCC (DNA:RNA)
# RNA: B1 RNA with C25A, U26A, C27A, G29U, A30C, G31C
# DNA 1: CAATCTGAATTCCGGTCTCCC
# DNA 2: TGGTGGCTACGACGGGATT
# B11: CAAGAUU (DNA:RNA)
# RNA: B1 RNA with U26A, C27A, U28G, G29A, A30U, G31U
# DNA 1: CAATCTGAATTCCGGTCTCCC
# DNA 2: TGGTGGCTACGACGGGATT
# B12: CUUCCCC (DNA:RNA)
# RNA: B1 RNA with C27U, U28C, G29C, A30C, G31C
# DNA 1: CAATCTGAATTCCGGTCTCCC
# DNA 2: TGGTGGCTACGACGGGATT
# B13: UUGUGCU (DNA:RNA)
# RNA: B1 RNA with C25U, C27G, A30C, G31U
# DNA 1: CAATCTGAATTCCGGTCTCCC
# DNA 2: TGGTGGCTACGACGGGATT
# B14: UAGGCAU (DNA:RNA)
# RNA: B1 RNA with C25U, U26A, C27G, U28G, G29C, G31U
# DNA 1: CAATCTGAATTCCGGTCTCCC
# DNA 2: TGGTGGCTACGACGGGATT
# B15: UUGAAAC (DNA:RNA)
# RNA: B1 RNA with C25U, C27G, U28A, G29A, G31C
# DNA 1: CAATCTGAATTCCGGTCTCCC
# DNA 2: TGGTGGCTACGACGGGATT
# B16: UCGCAAG (DNA:RNA)
# RNA: B1 RNA with C25U, U26C, C27G, U28C, G29A
# DNA 1: CAATCTGAATTCCGGTCTCCC
# DNA 2: TGGTGGCTACGACGGGATT
# B17: CUGCCUC (DNA:RNA)
# RNA: B1 RNA with C27G, U28C, G29C, A30U, G31C
# DNA 1: CAATCTGAATTCCGGTCTCCC
# DNA 2: TGGTGGCTACGACGGGATT
# B18: UACCUUU (DNA:RNA)
# RNA: B1 RNA with C25U, U26A, U28C, G29U, A30U, G31U
# DNA 1: CAATCTGAATTCCGGTCTCCC
# DNA 2: TGGTGGCTACGACGGGATT
# B19: AUGUUGG (DNA:RNA)
# RNA: B1 RNA with C25A, C27G, G29U, A30G
# DNA 1: CAATCTGAATTCCGGTCTCCC
# DNA 2: TGGTGGCTACGACGGGATT
# B20: GCAGAAA (DNA:RNA)
# RNA: B1 RNA with C25G, U26C, C27A, U28G, G29A, G31A
# DNA 1: CAATCTGAATTCCGGTCTCCC
# DNA 2: TGGTGGCTACGACGGGATT
# B21: GUAUGCA (DNA:RNA)
# RNA: B1 RNA with C25G, C27A, A30C, G31A
# DNA 1: CAATCTGAATTCCGGTCTCCC
# DNA 2: TGGTGGCTACGACGGGATT
# B22: AAAACCG (DNA:RNA)
# RNA: B1 RNA with C25A, U26A, C27A, U28A, G29C, A30C
# DNA 1: CAATCTGAATTCCGGTCTCCC
# DNA 2: TGGTGGCTACGACGGGATT
# B23: CAACUAU (DNA:RNA)
# RNA: B1 RNA with U26A, C27A, U28C, G29U, G31U
# DNA 1: CAATCTGAATTCCGGTCTCCC
# DNA 2: TGGTGGCTACGACGGGATT
# B24: CCGACAU (DNA:RNA)
# RNA: B1 RNA with U26C, C27G, U28A, G29C, G31U
# DNA 1: CAATCTGAATTCCGGTCTCCC
# DNA 2: TGGTGGCTACGACGGGATT
# B25: GUUCACC (DNA:RNA)
# RNA: B1 RNA with C25G, C27U, U28C, G29A, A30C, G31C
# DNA 1: CAATCTGAATTCCGGTCTCCC
# DNA 2: TGGTGGCTACGACGGGATT
# B26: ACCAACA (DNA:RNA)
# RNA: B1 RNA with C25A, U26C, U28A, G29A, A30C, G31A
# DNA 1: CAATCTGAATTCCGGTCTCCC
# DNA 2: TGGTGGCTACGACGGGATT
# B27: UACGCCU (DNA:RNA)
# RNA: B1 RNA with C25U, U26A, U28G, G29C, A30C, G31U
# DNA 1: CAATCTGAATTCCGGTCTCCC
# DNA 2: TGGTGGCTACGACGGGATT
# B28: UUCGCCC (DNA:RNA)
# RNA: B1 RNA with C25U, U28G, G29C, A30C, G31C
# DNA 1: CAATCTGAATTCCGGTCTCCC
# DNA 2: TGGTGGCTACGACGGGATT
# B29: GGAACUA (DNA:RNA)
# RNA: GGGAGACCGGAAUUCAGAUUGUCCGGAACUAUUAAAUCCCGUCGUAGCCACCA
# DNA 1: CAATCTGAATTCCGGTCTCCC
# DNA 2: TGGTGGCTACGACGGGATT
# B30: GAUCGCC (DNA:RNA)
# RNA: B1 RNA with C25G, U26A, C27U, U28C, A30C, G31C
# DNA 1: CAATCTGAATTCCGGTCTCCC
# DNA 2: TGGTGGCTACGACGGGATT
# B31: CAAGGAU (DNA:RNA)
# RNA: B1 RNA with U26A, C27A, U28G, G31U
# DNA 1: CAATCTGAATTCCGGTCTCCC
# DNA 2: TGGTGGCTACGACGGGATT
# Molecular target: T1, RBFOX1 RRM
# Experiment: EMSA; HiTS-Eq, 1 nM pool, 10 min; buffer printed only for the single-RNA assays: 10 mM Tris pH 7.5, 150 mM NaCl, 3.4 mM EDTA, 0.001% NP-40, 30 C
# Details: tags: His6 N-terminal (pET28a); label: 5' 32P
# Method in brief: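 These values rest on relative association constants, computed from read-count changes of each RNA species versus the control reaction and normalised to the cognate motif. Reads came from free RNA recovered by 8% native PAGE after purified RbFox RRM (wild type or mutant) at increasing concentrations was equilibrated for 10 min in 50 µL with 1 nM of a 5′-radiolabelled pool with 7 randomized nucleotides and DNA-annealed flanks.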
row,Binder,binding signal
1,B1,0.0147 KA relative to UGCAUGU
2,B2,0.00311 KA relative to UGCAUGU
3,B3,0.00877 KA relative to UGCAUGU
4,B4,0.0184 KA relative to UGCAUGU
5,B5,0.0144 KA relative to UGCAUGU
6,B6,0.0151 KA relative to UGCAUGU
7,B7,0.0059 KA relative to UGCAUGU
8,B8,0.0109 KA relative to UGCAUGU
9,B9,0.036 KA relative to UGCAUGU
10,B10,0.00139 KA relative to UGCAUGU
11,B11,0.00365 KA relative to UGCAUGU
12,B12,0.000685 KA relative to UGCAUGU
13,B13,0.0255 KA relative to UGCAUGU
14,B14,0.0122 KA relative to UGCAUGU
15,B15,0.00992 KA relative to UGCAUGU
16,B16,0.0188 KA relative to UGCAUGU

row,Binder,binding signal
1,B17,0.0175 KA relative to UGCAUGU
2,B18,0.00509 KA relative to UGCAUGU
3,B19,0.0177 KA relative to UGCAUGU
4,B20,0.00736 KA relative to UGCAUGU
5,B21,0.0319 KA relative to UGCAUGU
6,B22,0.000294 KA relative to UGCAUGU
7,B23,0.000487 KA relative to UGCAUGU
8,B24,0.00509 KA relative to UGCAUGU
9,B25,0.00812 KA relative to UGCAUGU
10,B26,0.000142 KA relative to UGCAUGU
11,B27,0.00588 KA relative to UGCAUGU
12,B28,0.00948 KA relative to UGCAUGU
13,B29,0.00705 KA relative to UGCAUGU
14,B30,0.0146 KA relative to UGCAUGU
15,B31,0.00611 KA relative to UGCAUGU
